Measured values taken from the supplement of paper PMC4604168 (melanoma cell lines).
The list shows a part of the results. Most values come without repeats; read them as rough.

Legend:
Assay in all cases: cell count relative to DMSO control; melanoma cells; higher = more viable cells
Details in all cases: library dose: low library concentration; 72 h
COLO792 = test system: COLO792
COLO800 = test system: COLO800
COLO829 = test system: COLO829
G361 = test system: G361
IPC-298 = test system: IPC-298
IST-MEL1 = test system: IST-MEL1
LB2518-MEL = test system: LB2518-MEL
LOXIMVI = test system: LOXIMVI
MEL-HO = test system: MEL-HO
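Also: cell number obtained by counting DAPI-stained nuclei in high-throughput microscope images with image analysis software, screen run in 1,536-well plates.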

Row | SMILES | cell count (COLO792) [%] | cell count (COLO800) [%] | cell count (COLO829) [%] | cell count (G361) [%] | cell count (IPC-298) [%] | cell count (IST-MEL1) [%] | cell count (LB2518-MEL) [%] | cell count (LOXIMVI) [%] | cell count (MEL-HO) [%]
1 | Cc1cc(N2CCOCC2)cc2[nH]c(-c3c(NC[C@@H](O)c4cccc(Cl)c4)cc[nH]c3=O)nc12 + Cn1cncc1[C@@](N)(c1ccc(Cl)cc1)c1ccc2c(c1)c(-c1cccc(Cl)c1)cc(=O)n2C [tipifarnib] (first compound 0.2 µM, partner dose 0.01 µM) | 83.9 | 42.3 | 87 | 90.8 | 79.7 | 85.8 | 75.3 | 121 | 81.1
2 | Cn1nnc2c(C(N)=O)ncn2c1=O [temozolomide] + O=C(Nc1cccc(Cl)c1)Nc1ncc(CCNc2ncnc3ccsc23)s1 [SNS314] (first compound 2 µM, partner dose 0.0008 µM) | 89.2 | 121 | 75.2 | 95.3 | 92.5 | 96.4 | 93.9 | 56.2 | 100
3 | Cn1nnc2c(C(N)=O)ncn2c1=O [temozolomide] + CO[C@@H]1[C@H](N(C)C(=O)c2ccccc2)C[C@H]2O[C@]1(C)n1c3ccccc3c3c4c(c5c6ccccc6n2c5c31)C(=O)NC4 [Midostaurin] (first compound 2 µM, partner dose 0.08 µM) | 101 | 109 | 94.4 | 88.3 | 95.5 | 93.4 | 96.8 | 67.4 | 99.9
4 | O=C(O)c1ccc2c(c1)nc(Nc1cccc(Cl)c1)c1ccncc12 + CN(C)S(=O)(=O)c1ccc2c(c1)/C(=C/c1cc3c([nH]1)CCCC3)C(=O)N2 [SU6656] (first compound 0.4 µM, partner dose 0.4 µM) | 89.6 | 103 | 83.3 | 89.5 | 90.6 | 95.6 | 84.2 | 74.9 | 82.2
5 | O=C(O)c1ccc2c(c1)nc(Nc1cccc(Cl)c1)c1ccncc12 + O=C(CCCCCCC(=O)Nc1ccccc1)NO [vorinostat] (first compound 0.4 µM, partner dose 0.08 µM) | 84.7 | 76.6 | 113 | 93.3 | 102 | 100 | 99.1 | 28.1 | 72.7
6 | Cc1cc(N2CCOCC2)cc2[nH]c(-c3c(NC[C@@H](O)c4cccc(Cl)c4)cc[nH]c3=O)nc12 + OCCn1cc(-c2cnc3nnn(Cc4ccc5ncccc5c4)c3n2)cn1 [PF04217903] (first compound 0.2 µM, partner dose 1 µM) | 94.1 | 87.6 | 110 | 112 | 103 | 98.1 | 94.1 | 78.5 | 101
7 | O=C(O)[C@@H]1[O][Sb](=[O])([O][Sb]2(=[O])[O][C@H]([C@H](O)CO)[C@H](O)[C@H](C(=O)O)[O]2)[O][C@H]([C@H](O)CO)[C@@H]1O (some centres not stated) [stibogluconate] + CCCCCCCCCCCC1=C(O)C(=O)C=C(O)C1=O [Embelin] (first compound 2 µM, partner dose 1.2 µM) | 98.1 | 152 | 117 | 95.2 | 106 | 112 | 93.8 | 103 | 94.5
8 | O=C(O)[C@@H]1[O][Sb](=[O])([O][Sb]2(=[O])[O][C@H]([C@H](O)CO)[C@H](O)[C@H](C(=O)O)[O]2)[O][C@H]([C@H](O)CO)[C@@H]1O (some centres not stated) [stibogluconate] + O=C(O)C(=O)Nc1sc2c(c1C(=O)O)CCNC2 [TCS401] (first compound 2 µM, partner dose 1.66667 µM) | 92.7 | 108 | 82.7 | 107 | 97.2 | 105 | 110 | 94.5 | 96.3
9 | Cn1nnc2c(C(N)=O)ncn2c1=O [temozolomide] + C[C@@H]1CCN(C(=O)CC#N)C[C@@H]1N(C)c1ncnc2[nH]ccc12 [CP690550] (first compound 2 µM, partner dose 1 µM) | 104 | 77.8 | 97.4 | 105 | 95.8 | 93.7 | 98.2 | 103 | 101
10 | O=C(O)c1ccc2c(c1)nc(Nc1cccc(Cl)c1)c1ccncc12 + COc1ccc(-c2ccc3c(N4CCOCC4)nc(N4C[C@@H](C)O[C@@H](C)C4)nc3n2)cc1CO [KU0063794] (first compound 0.4 µM, partner dose 0.02 µM) | 80.4 | 131 | 83.8 | 83.1 | 101 | 113 | 110 | 60.3 | 88.8
11 | O=C(O)c1ccc2c(c1)nc(Nc1cccc(Cl)c1)c1ccncc12 + O=S(=O)(c1ccccc1)N(CC(F)(F)F)c1ccc(C(O)(C(F)(F)F)C(F)(F)F)cc1 [T0901317] (first compound 0.4 µM, partner dose 1.4 µM) | 101 | 89.4 | 103 | 91.5 | 87.3 | 105 | 104 | 79.6 | 79.5
12 | O=C(Nc1cc(C(F)(F)F)cc(C(F)(F)F)c1)c1cc(Cl)ccc1O + CN(C)S(=O)(=O)c1ccc2c(c1)/C(=C/c1cc3c([nH]1)CCCC3)C(=O)N2 [SU6656] (first compound 0.016 µM, partner dose 0.4 µM) | 103 | 73.4 | 80 | 89.2 | 99.5 | 91.4 | 83 | 214 | 105
13 | O=C(O)[C@@H]1[O][Sb](=[O])([O][Sb]2(=[O])[O][C@H]([C@H](O)CO)[C@H](O)[C@H](C(=O)O)[O]2)[O][C@H]([C@H](O)CO)[C@@H]1O (some centres not stated) [stibogluconate] + O=C(Nc1ccccc1)c1cc([N+](=O)[O-])ccc1Cl [GW9662] (first compound 2 µM, partner dose 2 µM) | 109 | 107 | 91.6 | 103 | 109 | 99.3 | 102 | 98.2 | 91.4
14 | O=C(O)c1ccc2c(c1)nc(Nc1cccc(Cl)c1)c1ccncc12 + CC(C)(C)c1cnc(CSc2cnc(NC(=O)C3CCNCC3)s2)o1 [SNS-032] (first compound 0.4 µM, partner dose 0.01 µM) | 87.8 | 101 | 127 | 89.9 | 97 | 99.3 | 88.5 | 69.1 | 84.3
15 | O=C(O)[C@@H]1[O][Sb](=[O])([O][Sb]2(=[O])[O][C@H]([C@H](O)CO)[C@H](O)[C@H](C(=O)O)[O]2)[O][C@H]([C@H](O)CO)[C@@H]1O (some centres not stated) [stibogluconate] + Cc1cc(N2CCOCC2)cc2[nH]c(-c3c(NC[C@@H](O)c4cccc(Cl)c4)cc[nH]c3=O)nc12 [BMS536924] (first compound 2 µM, partner dose 0.2 µM) | 86.7 | 46.2 | 124 | 102 | 104 | 104 | 97 | 81.5 | 99.9
16 | O=C(Nc1cc(C(F)(F)F)cc(C(F)(F)F)c1)c1cc(Cl)ccc1O + NC(=O)Nc1cc(-c2cccc(F)c2)sc1C(=O)N[C@H]1CCCNC1 [AZD7762] (first compound 0.016 µM, partner dose 0.02 µM) | 85 | 100 | 117 | 123 | 99.2 | 116 | 111 | 145 | 115
17 | O=C(Nc1cc(C(F)(F)F)cc(C(F)(F)F)c1)c1cc(Cl)ccc1O + O=c1cc(-c2cccc3c2Sc2ccccc2S3)oc(N2CCOCC2)c1 [KU55933] (first compound 0.016 µM, partner dose 1 µM) | 97.3 | 125 | 105 | 104 | 91.9 | 103 | 97.2 | 103 | 99.1
18 | O=C(O)c1ccc2c(c1)nc(Nc1cccc(Cl)c1)c1ccncc12 + O=C1NC(=O)/C(=C/c2ccc(-c3ccc(F)cc3O)o2)S1 [AS252424] (first compound 0.4 µM, partner dose 1 µM) | 95.8 | 84.7 | 89.3 | 81.6 | 92.3 | 105 | 88.2 | 77.3 | 77.4
19 | O=C(O)[C@@H]1[O][Sb](=[O])([O][Sb]2(=[O])[O][C@H]([C@H](O)CO)[C@H](O)[C@H](C(=O)O)[O]2)[O][C@H]([C@H](O)CO)[C@@H]1O (some centres not stated) [stibogluconate] + CCc1ccc(CCOc2ccc(CC3SC(=O)NC3=O)cc2)nc1 [pioglitazone] (first compound 2 µM, partner dose 2 µM) | 104 | 154 | 109 | 90 | 100 | 101 | 105 | 82.3 | 85.5
20 | O=C(Nc1cc(C(F)(F)F)cc(C(F)(F)F)c1)c1cc(Cl)ccc1O + c1cc(-c2cnn3cc(-c4ccc(OCCN5CCCCC5)cc4)cnc23)ccn1 [Dorsomorphin] (first compound 0.016 µM, partner dose 0.4 µM) | 107 | 86.3 | 79.8 | 113 | 102 | 91.1 | 114 | 63.6 | 96.5
21 | O=C(O)c1ccc2c(c1)nc(Nc1cccc(Cl)c1)c1ccncc12 + Oc1nc(-c2ccc(C(F)(F)F)cc2)nc2c1CSCC2 [XAV939] (first compound 0.4 µM, partner dose 2 µM) | 71.2 | 81.3 | 60.1 | 85.1 | 97.8 | 115 | 105 | 64.9 | 72.9
22 | Cn1nnc2c(C(N)=O)ncn2c1=O [temozolomide] + NC(=O)Nc1cc(-c2cccc(F)c2)sc1C(=O)N[C@H]1CCCNC1 [AZD7762] (first compound 2 µM, partner dose 0.02 µM) | 106 | 69.7 | 90.6 | 111 | 95.6 | 107 | 130 | 85.3 | 102
23 | O=C(O)[C@@H]1[O][Sb](=[O])([O][Sb]2(=[O])[O][C@H]([C@H](O)CO)[C@H](O)[C@H](C(=O)O)[O]2)[O][C@H]([C@H](O)CO)[C@@H]1O (some centres not stated) [stibogluconate] + COC(=O)c1sccc1S(=O)(=O)Nc1ccc(Nc2ccccc2)cc1OC [GSK0660] (first compound 2 µM, partner dose 1 µM) | 104 | 116 | 107 | 102 | 95.4 | 100 | 108 | 155 | 95.9
